Test results taken from the supplement of paper PMC10126150.
Sequences with one replicate were seen in a single cluster, so their values are uncertain.

Tested on: ATP
Assay: switch fluorescence ratio, 500 uM ATP over buffer (Cy3 cluster intensity, sum of 5 cycles each) (fold (ratio)); higher = stronger signal-on switching upon ATP binding; sequences stand for … in TCGTCGGCAGCGTCAGATGTGTATAAGAGACAGTTTTTTTTTTTTTTTTTTTTTTTTT…TC
Conditions: aptamer strand: ATP DNA aptamer (quencher-CACCTGGGGGAGTATTGCGGAGGAAGG + anchor), 100 nM annealed; ATP concentration: 500 uM; one replicate
In short: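 Switching-strand clusters labelled with Cy3 on a modified Illumina MiSeq flow-cell were annealed to 100 nM quencher-labelled ATP aptamer, imaged in selection buffer, and re-imaged after 15 min with 500 uM ATP at 22 °C. This was done over five cycles with NaOH stripping and re-annealing in between. The fluorescence ratio is summed target-cycle over summed buffer-cycle Cy3 intensity per cluster, averaged per switch-domain sequence, excluding clusters outside 100-1000 RFU.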
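Also: ATP exposure 15 min at 22 °C before imaging.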

Q: Which switch fluorescence ratio does the source give for GGGAGGGCGC here?
A: 1.02

Q: How did the switch fluorescence ratio turn out when GGGAGGTGCA was run?
A: 0.979

Q: How did the switch fluorescence ratio turn out when GGGAGTAGG was run?
A: 1

Q: For GGGAGTGCTC, which switch fluorescence ratio is on record?
A: 0.978

Q: For GGGAGTGTGA, which switch fluorescence ratio is on record?
A: 1.01

Q: With GGGATAGTTC as the sequence, how does the switch fluorescence ratio read?
A: 1.08

Q: How did the switch fluorescence ratio turn out when GGGATCCCGG was run?
A: 0.996

Q: How did the switch fluorescence ratio turn out when GGGATGAT was run?
A: 1

Q: For GGGATGTTGC, which switch fluorescence ratio is on record?
A: 1.05

Q: How did the switch fluorescence ratio turn out when GGGATGTTTA was run?
A: 1.03

Q: GGGATTCAAA was tested. Which switch fluorescence ratio did it give?
A: 1.01

Q: How did the switch fluorescence ratio turn out when GGGATTGAAA was run?
A: 0.923

Q: Which switch fluorescence ratio does the source give for GGGATTGTTA here?
A: 1.01

Q: GGGATTTGT was tested. Which switch fluorescence ratio did it give?
A: 0.979

Q: For GGGCAACTT, which switch fluorescence ratio is on record?
A: 1.01

Q: Which switch fluorescence ratio does the source give for GGGCACTAGG here?
A: 1.04

Q: For GGGCATCTTA, which switch fluorescence ratio is on record?
A: 1.03

Q: How did the switch fluorescence ratio turn out when GGGCATGGG was run?
A: 0.971

Q: Which switch fluorescence ratio does the source give for GGGCCAAAAG here?
A: 0.983

Q: For GGGCCACAGG, which switch fluorescence ratio is on record?
A: 1.06

Q: Which switch fluorescence ratio does the source give for GGGCCAGCGT here?
A: 0.94

Q: How did the switch fluorescence ratio turn out when GGGCCCGACA was run?
A: 0.995

Q: How did the switch fluorescence ratio turn out when GGGCCGCGTA was run?
A: 1.03

Q: With GGGCCTCAAC as the sequence, how does the switch fluorescence ratio read?
A: 1.01

Q: GGGCCTCTCC was tested. Which switch fluorescence ratio did it give?
A: 1.22

Q: With GGGCGAACCG as the sequence, how does the switch fluorescence ratio read?
A: 1

Q: For GGGCGAATCG, which switch fluorescence ratio is on record?
A: 0.98

Q: Which switch fluorescence ratio does the source give for GGGCGCGA here?
A: 1.02

Q: GGGCGCGGAC was tested. Which switch fluorescence ratio did it give?
A: 1.23

Q: How did the switch fluorescence ratio turn out when GGGCGGAGGC was run?
A: 1.04

Q: GGGCGGATCA was tested. Which switch fluorescence ratio did it give?
A: 1.03

Q: GGGCGGGAAT was tested. Which switch fluorescence ratio did it give?
A: 0.946

Q: For GGGCGGGGAG, which switch fluorescence ratio is on record?
A: 1.02

Q: GGGCTACGGA was tested. Which switch fluorescence ratio did it give?
A: 0.944

Q: GGGCTATCCA was tested. Which switch fluorescence ratio did it give?
A: 0.965

Q: For GGGCTATTGA, which switch fluorescence ratio is on record?
A: 1.02

Q: How did the switch fluorescence ratio turn out when GGGCTCACAG was run?
A: 0.993

Q: For GGGCTGAGTC, which switch fluorescence ratio is on record?
A: 0.971

Q: GGGCTGCGGT was tested. Which switch fluorescence ratio did it give?
A: 0.968

Q: How did the switch fluorescence ratio turn out when GGGCTGGATA was run?
A: 0.994

Q: With GGGCTTAACT as the sequence, how does the switch fluorescence ratio read?
A: 1.05

Q: Which switch fluorescence ratio does the source give for GGGCTTATAT here?
A: 1.25

Q: With GGGCTTGACA as the sequence, how does the switch fluorescence ratio read?
A: 1.03

Q: How did the switch fluorescence ratio turn out when GGGCTTGGTC was run?
A: 0.946

Q: Which switch fluorescence ratio does the source give for GGGGAAAGT here?
A: 0.945

Q: With GGGGAAATAA as the sequence, how does the switch fluorescence ratio read?
A: 0.968

Q: With GGGGAACACA as the sequence, how does the switch fluorescence ratio read?
A: 1

Q: GGGGAAGATG was tested. Which switch fluorescence ratio did it give?
A: 0.978

Q: How did the switch fluorescence ratio turn out when GGGGAAGCAT was run?
A: 0.998

Q: For GGGGACAGCG, which switch fluorescence ratio is on record?
A: 0.981

Q: For GGGGACAGGA, which switch fluorescence ratio is on record?
A: 0.937

Q: How did the switch fluorescence ratio turn out when GGGGACCTTC was run?
A: 1.19

Q: With GGGGACGGAG as the sequence, how does the switch fluorescence ratio read?
A: 1.05

Q: GGGGAGACCA was tested. Which switch fluorescence ratio did it give?
A: 0.951

Q: Which switch fluorescence ratio does the source give for GGGGAGCCCA here?
A: 0.989

Q: For GGGGAGGTAC, which switch fluorescence ratio is on record?
A: 0.943

Q: How did the switch fluorescence ratio turn out when GGGGAGTACC was run?
A: 0.989

Q: How did the switch fluorescence ratio turn out when GGGGAGTACG was run?
A: 0.999

Q: For GGGGAGTTCC, which switch fluorescence ratio is on record?
A: 1.1

Q: For GGGGCAAACT, which switch fluorescence ratio is on record?
A: 0.96

Q: With GGGGCAAAGT as the sequence, how does the switch fluorescence ratio read?
A: 0.99

Q: How did the switch fluorescence ratio turn out when GGGGCAAGTC was run?
A: 1.12

Q: Which switch fluorescence ratio does the source give for GGGGCAGGAA here?
A: 0.969

Q: For GGGGCAGTGG, which switch fluorescence ratio is on record?
A: 0.968

Q: For GGGGCCATAA, which switch fluorescence ratio is on record?
A: 0.986

Q: GGGGCCCCTA was tested. Which switch fluorescence ratio did it give?
A: 0.993

Q: Which switch fluorescence ratio does the source give for GGGGCCTGTG here?
A: 0.979

Q: For GGGGCCTTAA, which switch fluorescence ratio is on record?
A: 1

Q: GGGGCGAGCG was tested. Which switch fluorescence ratio did it give?
A: 0.982

Q: With GGGGCGATCG as the sequence, how does the switch fluorescence ratio read?
A: 1.01

Q: Which switch fluorescence ratio does the source give for GGGGCGGCAA here?
A: 1.32

Q: With GGGGCGGTAG as the sequence, how does the switch fluorescence ratio read?
A: 1.02

Q: GGGGCGTGGT was tested. Which switch fluorescence ratio did it give?
A: 1.02

Q: GGGGCTAGGT was tested. Which switch fluorescence ratio did it give?
A: 1.01

Q: With GGGGCTCTTA as the sequence, how does the switch fluorescence ratio read?
A: 0.966

Q: With GGGGGAGAGT as the sequence, how does the switch fluorescence ratio read?
A: 0.977

Q: For GGGGGAGCTC, which switch fluorescence ratio is on record?
A: 1.05

Q: How did the switch fluorescence ratio turn out when GGGGGATCCC was run?
A: 0.993

Q: With GGGGGCACCT as the sequence, how does the switch fluorescence ratio read?
A: 1

Q: How did the switch fluorescence ratio turn out when GGGGGCGCTC was run?
A: 1

Q: Which switch fluorescence ratio does the source give for GGGGGCGTAA here?
A: 1.1

Q: For GGGGGCTTCA, which switch fluorescence ratio is on record?
A: 1.05

Q: GGGGGGCA was tested. Which switch fluorescence ratio did it give?
A: 1.02

Q: With GGGGGGCTCT as the sequence, how does the switch fluorescence ratio read?
A: 0.929

Q: GGGGGTAACA was tested. Which switch fluorescence ratio did it give?
A: 0.999
